# PubChem BioAssay (EPA / NIEHS)
# A number of entries come with more than one value. They are shown here; other results are not. An entry can have further records. The records of an entry are repeated measurements across runs, samples, wells, individuals or studies. Inconclusive results are not listed. How the source made its calls, unless noted: active means hit-call score of the fitted dose curve at least 0.9, where 1 is the maximum; inconclusive means response in the unintended direction; inactive means score below 0.9.
# Columns and labels:
# [1] = target: Estrogen receptor (Homo sapiens) (UniProt P03372); assay: NVS_NR_hER: NovaScreen (NVS) Nuclear Receptor Binding Assay for human Estrogen Receptor (ER) (AID 2283348)
# In short: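 Radiodetection of ligand displacement in a lysate-based, cell-free format using MCF7 extracts, read at 18 hours. Duplicate 25 uM primary testing, then concentration series for actives.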
# [2] = ATG_MRE_CIS: Attagene CIS-FACTORIAL HepG2 Assay for human Metal Responsive Element (MRE) (AID 2282954; active means hit-call score of the fitted dose curve at least 0.9, where 1 is the maximum; inactive means score below 0.9); conditions: HepG2 MRE cis-reporter transcription, Attagene multiplex; actives raise or lower the signal
# In short: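 Readout: capillary electrophoresis of 6-FAM-labelled, HpaI-digested RT-PCR reporter products. System: HepG2 cells carrying transient multiplexed cis reporters, dosed 24 h. Analysis: bidirectional fit, DMSO baseline.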
# [3] = target: Estrogen receptor (Homo sapiens) (UniProt P03372); assay: ATG_ERa_TRANS: Attagene TRANS-FACTORIAL HepG2 Assay for human Estrogen Receptor alpha (ERa) (AID 2282970); conditions: HepG2 Attagene TRANS ERa GAL4 reporter, mRNA
# In short: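 One of 30 multiplexed endpoints from a HepG2 TRANS system, this one reports ERa-Gal4-driven reporter mRNA. Transcripts were quantified 24 hours post-dosing by fluorescent RT-PCR and capillary electrophoresis, with activity scored as induction over DMSO.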
# [4] = target: Estrogen receptor (Homo sapiens) (UniProt P03372); assay: OT_ER_ERaERa_1440: Odyssey Thera (OT) 24-hour HEK293T Protein-Complementation Assay for Estrogen Receptor-alpha/-alpha Homodimer (AID 2283349);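 further: hits raise fluorescence above DMSO for agonists and antagonists alike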
# In short: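 Stably transfected HEK293T; ERα LBD homodimer PCA. 24 h dosing, fluorescence intensity read, gain-of-signal vs DMSO.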
# [5] = target: Estrogen receptor (Homo sapiens) (UniProt P03372); assay: OT_ER_ERaERa_0480: Odyssey Thera (OT) 8-hour HEK293T Protein-Complementation Assay for Estrogen Receptor-alpha/-alpha Homodimer (AID 2283351);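 further: rise in fluorescence from reassembled reporter fragments on ERα LBD homodimer in nucleus or whole cell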
# In short: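 Measures ERα LBD (aa 310-547) homodimer complementation in stably transfected HEK293T at 8 h post-dose, with fluorescence intensity quantified on a laser scanning cytometer relative to DMSO controls.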
# [6] = target: T1, Estrogen receptor (Homo sapiens) + Estrogen receptor beta (Homo sapiens) (UniProt P03372+Q92731); assay: OT_ER_ERaERb_0480: Odyssey Thera (OT) 8-hour HEK293T Protein-Complementation Assay for Estrogen Receptor-alpha/-beta Heterodimer (AID 2283352)
# In short: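 HEK293T cells expressing ER-alpha/ER-beta LBD fusions to complementary reporter fragments were dosed with compound for 8 hours. Heterodimer formation was read as increased nuclear (agonist) or nuclear plus cytoplasmic (antagonist) mean fluorescence intensity versus DMSO vehicle.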
# [7] = target: T1, Estrogen receptor (Homo sapiens) + Estrogen receptor beta (Homo sapiens); assay: OT_ER_ERaERb_1440: Odyssey Thera (OT) 24-hour HEK293T Protein-Complementation Assay for Estrogen Receptor-alpha/-beta Homodimer (AID 2283356);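 further: heteromer of ER alpha and ER beta binding domains; hits raise reporter fluorescence and both agonists and antagonists give an increase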
# In short: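 HEK293T cells stably expressing a PCA pair of ERα LBD (aa 310-547) and ERβ LBD (aa 263-489) were dosed for 24 h. Fluorescence intensity increase versus DMSO vehicle was fitted as gain-of-signal.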
# [8] = target: Estrogen receptor beta (Homo sapiens) (UniProt Q92731); assay: OT_ER_ERbERb_0480: Odyssey Thera (OT) 8-hour HEK293T Protein-Complementation Assay for Estrogen Receptor-beta/-beta Homodimer (AID 2283357);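 further: active means signal gain over DMSO baseline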
# In short: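 Fluorescence gain from complemented reporter fragments on ER-beta LBD homodimer in HEK293T was quantified against DMSO controls after 8 h treatment, fixation in 4% formaldehyde and Draq5 staining.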
# [9] = target: mouse Estrogen Receptor alpha (Era), Esr1 (gene 13982) (UniProt P19785); assay: NVS_NR_mERa: NovaScreen (NVS) Nuclear Receptor Binding Assay for mouse Estrogen Receptor alpha (Era) (AID 2283378);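 further: hit means loss of bound radioligand signal relative to DMSO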
# In short: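 Cell-free radioligand binding with extracted mouse Era protein; competitive displacement of radiolabelled ligand, read by filter-based scintillation counting 18 hours after dosing. Loss of signal versus DMSO baseline taken as binding; single screening concentration 25 uM, actives followed in concentration series.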
# [10] = target: Estrogen receptor beta (Homo sapiens) (UniProt Q92731); assay: OT_ER_ERbERb_1440: Odyssey Thera (OT) 24-hour HEK293T Protein-Complementation Assay for Estrogen Receptor-beta/-beta Homodimer (AID 2283380);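 further: fluorescence gain from ER beta LBD homodimer complementation read by laser scanning cytometry; scored as signal increase over DMSO baseline for both agonists and antagonists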
# In short: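 HEK293T cells stably expressing human ER-beta LBD (aa 310-547) PCA homodimer pair, dosed 24 h; formaldehyde-fixed, Draq5-stained. Readout: increase in nuclear (agonist) or nuclear plus cytoplasmic (antagonist) fluorescence intensity versus DMSO, gain-of-signal fitting.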
# [11] = target: Estrogen receptor (Homo sapiens) (UniProt P03372); assay: OT_ERa_GFPERaERE_0480: Odyssey Thera (OT) 8-hour HeLa Transcription Induction Assay for Estrogen Receptor (AID 2283381; active means hit-call score of the fitted dose curve at least 0.9, where 1 is the maximum; inactive means score below 0.9)
# In short: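 An 8 h HeLa transcription-induction format with a GFP reporter under ERE control, read by fluorescence microscopy; single endpoint fitted positively with DMSO as baseline.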
# [12] = ATG_ERE_CIS: Attagene CIS-FACTORIAL HepG2 Assay for Estrogen Response Element (ERE) (AID 2282940; active means hit-call score of the fitted dose curve at least 0.9, where 1 is the maximum; inactive means score below 0.9); conditions: HepG2 ERE cis-reporter, Attagene RNA transcript; actives raise or lower the signal
# In short: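 Measuring endogenous transcription factor output, the assay doses transfected HepG2 cells for 24 hours and quantifies reporter transcripts by fluorescent RT-PCR and capillary electrophoresis, with DMSO as baseline.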
# Chain of UniProt P19785 (P19785 whole entry, looked up): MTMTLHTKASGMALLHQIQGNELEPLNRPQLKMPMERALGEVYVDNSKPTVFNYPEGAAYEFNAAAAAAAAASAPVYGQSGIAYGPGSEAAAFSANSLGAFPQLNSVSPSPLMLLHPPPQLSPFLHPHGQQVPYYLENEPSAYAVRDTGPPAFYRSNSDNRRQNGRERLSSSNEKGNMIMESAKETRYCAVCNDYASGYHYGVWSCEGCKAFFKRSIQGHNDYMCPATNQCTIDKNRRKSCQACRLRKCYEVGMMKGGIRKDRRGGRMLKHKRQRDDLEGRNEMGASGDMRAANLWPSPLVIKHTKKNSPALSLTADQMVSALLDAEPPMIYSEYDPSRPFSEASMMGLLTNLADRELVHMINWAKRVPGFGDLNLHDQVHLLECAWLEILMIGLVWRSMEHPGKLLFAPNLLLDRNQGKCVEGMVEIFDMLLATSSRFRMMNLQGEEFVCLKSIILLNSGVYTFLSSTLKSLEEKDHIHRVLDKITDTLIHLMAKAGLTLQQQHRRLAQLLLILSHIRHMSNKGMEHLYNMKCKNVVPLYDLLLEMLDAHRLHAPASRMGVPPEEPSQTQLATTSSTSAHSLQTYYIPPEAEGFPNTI
# Chain of UniProt Q92731 (Q92731 whole entry, looked up, the tested form may be a part): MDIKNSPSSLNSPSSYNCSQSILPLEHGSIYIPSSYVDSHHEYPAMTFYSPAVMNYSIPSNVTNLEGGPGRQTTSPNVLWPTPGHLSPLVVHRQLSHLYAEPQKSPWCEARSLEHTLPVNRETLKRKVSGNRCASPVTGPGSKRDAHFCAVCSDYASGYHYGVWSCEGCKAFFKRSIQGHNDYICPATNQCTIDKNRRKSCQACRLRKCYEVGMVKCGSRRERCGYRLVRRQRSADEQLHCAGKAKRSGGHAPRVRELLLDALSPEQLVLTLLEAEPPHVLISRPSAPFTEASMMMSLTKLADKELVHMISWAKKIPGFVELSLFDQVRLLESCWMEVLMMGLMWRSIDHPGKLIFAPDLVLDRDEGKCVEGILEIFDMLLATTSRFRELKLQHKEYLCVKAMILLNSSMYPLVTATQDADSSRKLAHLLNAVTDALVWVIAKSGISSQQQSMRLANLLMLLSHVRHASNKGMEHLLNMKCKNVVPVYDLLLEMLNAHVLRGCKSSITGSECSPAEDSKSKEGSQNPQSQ
smiles,measurement,setting,value
CC(C)(c1ccccc1)c1ccc(O)cc1,AC50,[1],"active: 847 nM, 1.79 µM, 5.27 µM, 12.7 µM [separate samples]"
CCC(C)(c1ccc(O)cc1)c1ccc(O)cc1,AC50,[2],"active: 53.4, 12.2, 44.3, 22.7 µM [separate samples]"
same,AC50,[3],"active: 118, 375, 256, 384 nM [separate samples]"
same,AC50,[1],"active: 43.4, 17.9, 16.8, 12.2, 284 nM [separate samples]"
same,AC50,[4],"active: 505 nM, 544 nM, 12.5 µM, 10.5 µM, 10.1 µM [separate samples]"
same,AC50,[5],"active: 419 nM, 442 nM, 2.16 µM, 1.84 µM, 1.42 µM [separate samples]"
same,AC50,[6],"active: 287 nM, 226 nM, 477 nM, 489 nM, 1.2 µM [separate samples]"
same,AC50,[7],"active: 241 nM, 232 nM, 1.34 µM, 1.08 µM, 916 nM [separate samples]"
same,AC50,[8],"active: 101, 111, 26.3, 20.9, 19.3 nM [separate samples]"
same,AC50,[9],"active: 24.8, 22.3, 8.74, 6.11, 227 nM [separate samples]"
same,AC50,[10],"active: 125, 145, 48.2, 12.5, 11.2 nM [separate samples]"
same,AC50,[11],"active: 235, 295, 108, 70.3, 263 nM [separate samples]"
CCCCCCCCCc1ccc(O)cc1,AC50,[12],"active: 4.31, 6.44, 1.65, 6.32 µM [separate samples]"
